Data reported in the supplement of paper PMC10986608.
The other results are listed elsewhere or left out. Many values rest on one well or one pass, so single values are uncertain.

These molecules were tested on Candida albicans DPL-15 (assay: growth (OD600) after compound treatment (apparently relative to screen median) (relative growth (fraction; screen median 1.02)); DPL-15 is a caspofungin-resistant clinical isolate; higher = more fungal growth (less antifungal activity)). Settings: 25 µM; RPMI 1640; 48 h; 30 °C.
For `COC(=O)c1cc2c(c3c4cc(OC)ccc4n(S(=O)(=O)c4cccc(C)c4)c13)C(=O)N(Cc1ccc(C)cc1)C2`, the growth was 1.01.
`COc1ccc(N2C(=O)C3=C(C(C(C)C)=NCCN3)C2c2cccc(C(F)(F)F)c2)cc1` (stereo unspecified) showed a growth of 1.02.
In the case of `FC(F)(F)c1cc(C(F)(F)F)c2c3c([nH]c2c1)CCCC3`, the growth is reported as 1.08.
Molecule `COc1ccc(N2C(=O)C3=C(C(CC(C)C)=NCCN3)C2c2ccc(Br)cc2)cc1` (stereo unspecified) has a growth of 0.959.
Molecule `COc1cccc2c(=O)c3cccc(C(=O)Nc4ccc(CC(=O)N5Cc6ccccc6C5)cc4)c3[nH]c12` has a growth of 1.25.
`C/C=C/[C@H]1CC(=O)c2c(O)c(C)c(O)c(C)c2[C@]12C(=O)C=C(C)OC2=O` was tested, and the growth was 0.907.
`COc1ccc2c(c1)C(=O)[C@@H](CCCO)[C@@H]2c1ccccc1` showed a growth of 0.741.
Molecule `CS(=O)(=O)Oc1c(CC23CCCCC2=Nc2ccc(Cl)cc23)occc1=O` (stereo unspecified) has a growth of 1.2.
`C[C@H]1C=CCCO[C@@H]1c1ccc(-n2ccnc2)cc1` showed a growth of 0.745.
`O=C1OC[C@H](Cc2ccc3c(c2)OCO3)[C@H]1Cc1ccc2c(c1)OCO2` was tested, and the growth was 0.979.
In the case of `COc1cc(CC=C(C)C)c2c(=O)c3ccccc3[nH]c2c1O`, the growth is reported as 0.782.
`O=C1CCCC=C1[C@@H](O)CCOC(c1ccccc1)(c1ccccc1)c1ccccc1` gave a growth of 0.972.
`CC(C)Cc1n[nH]c2c1C(c1cccc(C(F)(F)F)c1)N(c1ccc(N(C)C)cc1)C2=O` (stereo unspecified) gave a growth of 1.12.
`CC(=O)C1=C(C)N(Cc2ccccc2)C(=O)N[C@H]1c1ccc(Br)cc1` was tested, and the growth was 0.854.
In the case of `CCCCCOS(=O)(=O)Nc1ccc(C(F)(F)F)cc1`, the growth is reported as 1.11.
Molecule `CN1CCN=C(c2ccccc2)C2=C1C(=O)NC2c1cccc(C(F)(F)F)c1` (stereo unspecified) has a growth of 0.897.
For `CC(C)[C@]12OC3=C(C(=O)C(C)(C)C(=O)C3(C)C)[C@H]1CC1(CCCCC1)O2`, the growth was 1.
`COc1ccc(N2C(=O)C3=C(C(CC(C)C)=NCCN3)C2c2ccc(F)cc2)cc1` (stereo unspecified) was tested, and the growth was 0.991.
With `COc1ccc(Cn2ncc(C(C)C)c2N)cc1` the growth was 1.08.
Molecule `COc1ccc2c(c1)O[C@@H](c1cccc(C(F)(F)F)c1)[C@H](O)C2=O` has a growth of 0.714.
Work on `C=CCN1C(=O)C2=C(C(C)=NCCN2)C1c1cccc(C(F)(F)F)c1` (stereo unspecified) yielded a growth of 1.03.
`COc1cc(CC=C(C)C)c2c(=O)c3cc(F)c(F)cc3oc2c1O` was tested, and the growth was 1.14.
`C[C@@H]1/C=C/CC(=O)OCCCCC(=O)N[C@@H]1c1cccc(Br)c1` gave a growth of 1.08.
With `CC1=CC[C@@H](COc2ccccc2)O[C@@]2(C1)C(=O)Nc1cccc(Br)c12` the growth was 1.11.
For `COC(=O)N[C@H](CC(C)=O)c1ccccc1`, the growth was 1.02.
`CO[C@@H]1[C@H](O)CC[C@]2(O)CN(c3ccc4ncoc4c3)[C@](C)([C@H](O)CC=C(C)C)[C@@H]12` was tested, and the growth was 0.911.
`COc1cccc(CN(C)C[C@@H]2CCCN(CCc3ccccc3C)C2)c1` showed a growth of 0.994.
Work on `NS(=O)(=O)N1CCOCC1` yielded a growth of 1.01.
With `COC(=O)c1[nH]c2ccccc2c1[C@]12CCN(C(=O)Cc3c(F)cccc3F)[C@H]1Nc1ccccc12` the growth was 1.05.
Molecule `C=C(C)[C@@H]1[C@H](c2cc(OC)c(O)c3oc4c(c(=O)c23)CCCC4)C=C(C)C[C@H]1c1cc(OC)c(O)c2oc3c(c(=O)c12)CCCC3` has a growth of 1.16.
`CC(=O)C1=C2C=CCCN2C(=O)NC1c1cccc(F)c1F` (stereo unspecified) showed a growth of 1.01.
Work on `COc1ccc([C@@]23Oc4cc(OC)c(F)c(OC)c4[C@]2(O)c2nc4n(c(=O)c2[C@H]3c2ccccc2)CCC4)cc1` yielded a growth of 1.15.
For `CO[C@@H]1[C@H](O)CC[C@]2(O)CN(c3ccc(Oc4ccccc4)cc3)[C@@H](CC=C(C)C)[C@](C)(O)[C@@H]12`, the growth was 0.794.
For `COc1ccc(N2C(=O)c3[nH]nc(CC(C)C)c3C2c2ccccc2Br)cn1` (stereo unspecified), the growth was 1.03.
In the case of `COC(=O)c1cc2cc3c(cc2c(-c2ccc(OC)cc2)c1C(=O)OC)OCO3`, the growth is reported as 0.944.
With `COc1ccc([C@@]23Oc4cc(OC)cc(OC)c4[C@]2(O)c2nc(C4CC4)[nH]c(=O)c2[C@H]3c2ccccc2)cc1` the growth was 1.02.
`CCOC(=O)CN1C(=O)N[C@@H](c2cccc(F)c2)C(C(=O)OC)=C1C` gave a growth of 0.967.
Work on `CC(C)Cc1nn(Cc2ccccc2)c2c1C(c1ccccc1)NC2=O` (stereo unspecified) yielded a growth of 1.01.
`C=CCC1=C2OC(C)(C)[C@@H](CC=C)C[C@]23C[C@@H](CC=C)C(C)(C)[C@](C(=O)c2ccccc2)(C1=O)C3=O` showed a growth of 0.991.
`CC(=O)OC[C@H]1O[C@H](c2ccc(F)cc2)C=C[C@@H]1OC(C)=O` was tested, and the growth was 0.925.
Molecule `c1ccc([C@H]2c3cc4c(cc3O[C@H]3c5ccccc5C[C@@H]23)OCO4)cc1` has a growth of 1.13.
`Cc1n[nH]c2c1COC[C@H](c1ccccc1)NC(=O)CC1(CCCCC1)CNC(=O)c1cccc-2c1` gave a growth of 1.02.
With `CC(C)Cc1n[nH]c2c1C(c1ccc(F)cc1)N(Cc1ccccc1)C2=O` (stereo unspecified) the growth was 1.02.
`CO[C@@H]1[C@H](O)CC[C@]2(O)CN([C@@H](C)c3ccccc3)[C@@H](CC=C(C)C)[C@](C)(O)[C@@H]12` showed a growth of 1.14.
With `Cn1c(-c2ccc(Br)cc2)c(O)c(=O)c2c(F)cccc21` the growth was active: 0.0898.
Work on `CCCCCNS(=O)(=O)OCCCCC` yielded a growth of 0.962.
Molecule `CC(C)c1c2c(nn1-c1ccc(F)cc1)C(=O)NC2c1ccccc1` (stereo unspecified) has a growth of 0.967.
Molecule `CC(C)C1=C[C@H]2[C@@H]3[C@@H](C(C(C)C)=CC(=O)[C@]3(C)O)[C@@H]1C(=O)[C@]2(C)O` has a growth of 1.12.
Work on `Cc1ccc(C2C3=C(NCCN=C3C(C)C)C(=O)N2Cc2ccccc2)cc1` (stereo unspecified) yielded a growth of 1.06.
`COC(=O)C1=C(C)N(CC(C)C)C(=S)NC1c1cccc(F)c1` (stereo unspecified) showed a growth of 0.877.
`Cn1c(-c2ccc(Br)cc2)c(O)c(=O)c2ccccc21` showed a growth of 0.819.
